Test results: article PMC12136788
Some of the results follow.

B1: chr2:159230815:159230918:+|CDS|ENSG00000115183|unk|FALSE|unique (ssRNA)
RNA: GGGAGUUCUACAGUCCGACGAUCAACCUGUUCUGUUUCUACCCUGAGUGCAAGUGUCCACAAUGGGGCACAAGUGAAGGAGCUAGAAGAAAGCAAGUGCCAAAUUCCAGUCCACUCUCAAGAGAACAGGAUAACUAAGACUGUCAACAGAGGAUUGAGCAUCA
B2: chr12:120444061:120444162:-|3pUTR|ENSG00000170855|unk|FALSE|unique (ssRNA)
RNA: GGGAGUUCUACAGUCCGACGAUCAAUUGUCAACCUGCAUAUCCUAAAAAUGUCAAAAUGCUGCAUCUGGUUAAAUGUCGGGGUAGGGGGGAAGCUGAAGGUGCUCGCUUCAUUUGCCUUGUUUACUCAUCCUGCCCUGUAAUGCAACAGAGGAUUGAGCAUCA
B3: ENSG00000070961:be:win_2901|CDS|ENSG00000070961|bound_else_gene|NA|bound_elsewhere_windowed (ssRNA)
RNA: GGGAGUUCUACAGUCCGACGAUCUCCUUCAGAACAUUAUACUAUUGUUUUUAAUACCUUUGUGCUGAUGCAACUUUUCAACGAAAUAAAUGCCCGGAAAAUUCAUGGUGAAAGAAAUGUAUUCGAAGGAAUCUUUAACAAUGCCAACAGAGGAUUGAGCAUCA
B4: chr1:161171309:161171815:-|three_prime_utr|ENSG00000158850|control|control|control (ssRNA)
RNA: GGGAGUUCUACAGUCCGACGAUCACCCUCAGCUCCUCACUGUUCUCAGAGGGAUGUGAGGGAACUGAACUCUGGUGCCGUGCUAGGGGGUAGGGGCCUCUCCCUCACUGCUGGACUGGAGCUGGGCUCCUGUAGACCUGAGGGCAACAGAGGAUUGAGCAUCA
B5: chr11:118373572:118373686:+|CDS|ENSG00000110344|unk|total|mutant (ssRNA)
RNA: GGGAGUUCUACAGUCCGACGAUCGAAGACCUUGCUGGGAGUAAUUCUGAGUAUCUCCUGCUUAUUAAAGACUCCGGGUGUUGCCGAAAAUCAUGGCUACUUUUUGAAUCCAUCUCGUUCCAGCCCCCAGGAGAUCAAAGUACACAACAGAGGAUUGAGCAUCA
B6: chr4:38700566:38700667:+|3pUTR|ENSG00000109787|unk|FALSE|unique (ssRNA)
RNA: GGGAGUUCUACAGUCCGACGAUCUACAAAGCCAUCUUUACAUGCAUUAAACGAGGGCUACAACAAUAUUGUUUUACAAAUACUAGCACUUUUUUUUCUGUUAUGUACUUAGUGUUAGAGGGUCAAAAUAAUCUUUCUGCUUAGCAACAGAGGAUUGAGCAUCA
B7: chr1:246839951:246840052:-|3pUTR|ENSG00000153207|msi1|total|mutant (ssRNA)
RNA: GGGAGUUCUACAGUCCGACGAUCAAAUGUAAAAUAAAUCUGUUUAUGGAUAUUGAGUGCAUCUUGUAUGUGCCUAAUAUUGACCGGAUGAGAUGUCUGAACAAAUUUUUAUAAUAUUGCUGUGAAGGAGCUUGCUAUUGAACCCAACAGAGGAUUGAGCAUCA
B8: chr9:116699486:116699595:+|CDS|ENSG00000119401|unk|FALSE|unique (ssRNA)
RNA: GGGAGUUCUACAGUCCGACGAUCUUCCGCUGCAUUGCUGGCAUGUGUGUGGAUGCUCGUGGUGAUCUCAUCGUGGCUGACAGUAGUCGCAAGGAAAUUCUCCAUUUUCCUAAGGGUGGGGGCUAUAGUGUCCUUAUUCGAGAGCAACAGAGGAUUGAGCAUCA
B9: chr3:48658964:48659065:-|CDS|ENSG00000008300|msi1|FALSE|unique (ssRNA)
RNA: GGGAGUUCUACAGUCCGACGAUCCGAUGUCUCCGACCACCUCUUCUACUCCUUUGAGCGUGGCAAUGAGCUGCAGCUGCUGGUAGUCAACCAGACCAGUGGGGAGCUGCGACUCAGCCGAAAGCUAGACAAUAACCGCCCACUCAACAGAGGAUUGAGCAUCA
B10: chr1:17826356:17826472:+|CDS|ENSG00000117148|unk|total|mutant (ssRNA)
RNA: GGGAGUUCUACAGUCCGACGAUCAGGGAGCUGAUGGGGGAUCACGUCUCCUCCACCAAGGCCACAGUCUGGGAGGGUUCCAACCGAAACUUCCGUGUCUGGCCCGGAGCGUCCGUGGUGGCUCACCUUUCUACCUACCAGUCUCAACAGAGGAUUGAGCAUCA
B11: chr7:92086252:92086353:+|CDS|ENSG00000127914|msi1|total|mutant (ssRNA)
RNA: GGGAGUUCUACAGUCCGACGAUCUCAUGAGAGCUUCUCAGACUGGCGAGGUGAACUACUGCUUGCCCUUCAACAAGUUUUCUCCGAAGAGCGCCGUGUUUUACCCGCAGCAUUUCGGACGGAGCUGACAGCUCCCGGUACUACCAACAGAGGAUUGAGCAUCA
B12: chrX:71300841:71300885:+|3pUTR|ENSG00000147140|msi1_unk|total|mutant (ssRNA)
RNA: GGGAGUUCUACAGUCCGACGAUCCCCCAUAUAUUACCCCUUCAUGUCCUAAAGAAGACAUUUUCUCUCCGAGAUUUUCAUUUCCGUGUAUCUUUAAAAAAAAAUCUUGUGUUAACUUGCCUCCAUCUUUUUCUUGGGUGAGGACAACAGAGGAUUGAGCAUCA
B13: chr3:15667380:15667481:-|3pUTR|ENSG00000206560|msi1|FALSE|bound_elsewhere (ssRNA)
RNA: GGGAGUUCUACAGUCCGACGAUCUAUACAUAAAAGAUGACAUCUGAAAUAUCUGAUGUGUAUUAUAAUACCAGCUUCUGCUCUAGAACUACUUUGGGUGAAAUGGUGGUAAUAGCAAAUGACCUCCUUUAACAAGACACUCAUCAACAGAGGAUUGAGCAUCA
B14: chr2:42328916:42329027:+|CDS|ENSG00000143924|unk|total|mutant (ssRNA)
RNA: GGGAGUUCUACAGUCCGACGAUCAGAAGGAUCUGAUGGGACAGAUAUCAAUGCACUGGUGCGAUCCCACAACCGAAAGGUGACCGCUGUUGCCGAUGACUUUUGUAAAGUCCAUCUGUUUCAGUAUCCCUGCUCCAAAGCAAACAACAGAGGAUUGAGCAUCA
B15: chr6:132743869:132744491:-|three_prime_utr|ENSG00000112303|control|control|control (ssRNA)
RNA: GGGAGUUCUACAGUCCGACGAUCAUGUGGGACCAGCAAUUCAGCAAUAACUUACCUGCUAAUAUUCAUAUUAUUAAUGAUCAUAGCUUUGCAAAAUAUUGUAAUGUUAUAGGGCGUCUCUUUAUCACUCAGCUUCUGCAUCAUCAACAGAGGAUUGAGCAUCA
B16: chr5:103029089:103029184:+|3pUTR|ENSG00000145730|msi1_unk|FALSE|overlapping (ssRNA)
RNA: GGGAGUUCUACAGUCCGACGAUCAACCAAGCUUUGAUUUAGAUUGAGUAAGAUUUACCCAGAAUGUCAGAUUCCUUUCCCUUUAGCACGUUUAAAGUUCUGUGUAUUUAAUUGUAAACUGUACUAGUCUGUGUGGGACUGUACCAACAGAGGAUUGAGCAUCA
B17: ENSG00000070961:be:win_1201|CDS|ENSG00000070961|bound_else_gene|NA|bound_elsewhere_windowed (ssRNA)
RNA: GGGAGUUCUACAGUCCGACGAUCAAAAGACCAUGGCUUGCUGAGUGCACACCAAUUUAUAUACAAUACUUUGUGAAGUUCUUCAUUAUUGGAGUUACAGUUUUAGUGGUCGCAGUGCCAGAAGGUCUUCCACUUGCAGUCACGCAACAGAGGAUUGAGCAUCA
B18: chr2:45005181:45006169:-|three_prime_utr|ENSG00000170577|control|control|control (ssRNA)
RNA: GGGAGUUCUACAGUCCGACGAUCCAGGGGCGCCCCGCCCCUGCGGCCCCACCAGGUACUGAAAGACCCGCAGGCUGAGCGGGUAGAACAGCCGGGUAGGGCAGAUAGCUGUCUAUGUUGGUUCUUGUUUGGGAUUUAUUUUCACAACAGAGGAUUGAGCAUCA
B19: chr13:108210595:108210700:-|CDS|ENSG00000174405|unk|FALSE|unique (ssRNA)
RNA: GGGAGUUCUACAGUCCGACGAUCUCAGCACUUGAGCAAAAGUGGCUUAUACGGAUGAUCAUAAAGGAUUUAAAGCUUGGUGUUAGUCAGCAAACUAUCUUUUCUGUUUUUCAUAAUGAUGCUGCUGAGUUGCAUAAUGUCACUCAACAGAGGAUUGAGCAUCA
B20: ENSG00000168556:stop:overlap|stop_codon|ENSG00000168556|stop_codon|NA|stop_codon (ssRNA)
RNA: GGGAGUUCUACAGUCCGACGAUCAUAAUGAGAAAACAAUGGACAAAAGUACUGAAAAGACAAAAAAGGAUAGAAGAUCGAGGUAGUAAAGGCCAUCCACAUUUUAAAGGGUUAUUUGUCUUUUAUAUAAUUCGUUUGCUUUCACAACAGAGGAUUGAGCAUCA
B21: chr12:2849045:2849230:-|three_prime_utr|ENSG00000283297|control|control|control (ssRNA)
RNA: GGGAGUUCUACAGUCCGACGAUCCCCAGAGCCCCAGGCUCCAGUGUUCUCAAUCAAUGCUCCUUCAGCAAGAGGCCCUGGGGUAGCAAAAGGACUCUGGCUUCUGCAGAACAGCCUCUCCACCAUCCUCCCAGCCUCAAGCCACAACAGAGGAUUGAGCAUCA
B22: chr16:46660370:46660459:-|3pUTR|ENSG00000069329|msi1_unk|FALSE|overlapping (ssRNA)
RNA: GGGAGUUCUACAGUCCGACGAUCAAAAGGAAAUAGCUCACCAUACUCCUUUCCAUGUACAUCCAGUGAGGGUUUUAUUACGCUAGGUUUCCCUUCCAUAGAUUGUGCCUUUCAGAAAUGCUGAGGUAGGUUUCCCAUUUCUUACAACAGAGGAUUGAGCAUCA

These binders were tested against MSI1 full-length (mouse, UniProt Q61474 1-362) (assay: nsRBNS (natural sequence RNA bind-n-seq); RBNS binding buffer (assumed for nsRBNS): 25 mM Tris pH 7.5, 150 mM KCl, 3 mM MgCl2, 0.01% Triton X-100, 500 ug/ml BSA, 20 U/ml SUPERase-In, 4 C; UNK is unkempt and MSI1 is Musashi-1; names of the RNAs are library labels; protein concentration not given here; high values mean tight binding).
UniProt Q61474, sequence (Q61474 whole entry): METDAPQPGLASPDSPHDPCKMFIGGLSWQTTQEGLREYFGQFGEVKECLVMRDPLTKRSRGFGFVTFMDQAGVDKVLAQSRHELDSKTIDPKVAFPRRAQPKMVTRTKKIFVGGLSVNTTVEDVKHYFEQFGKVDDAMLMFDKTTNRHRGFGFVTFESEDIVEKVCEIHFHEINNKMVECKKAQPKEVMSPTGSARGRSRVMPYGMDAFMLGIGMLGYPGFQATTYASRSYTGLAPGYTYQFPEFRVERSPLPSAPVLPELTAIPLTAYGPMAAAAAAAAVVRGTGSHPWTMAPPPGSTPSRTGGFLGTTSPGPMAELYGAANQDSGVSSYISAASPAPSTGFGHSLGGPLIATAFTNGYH

Row | Binder | binding signal [enrichment R]
1 | B1 | 0.324
2 | B2 | 0.416
3 | B3 | 0.352
4 | B4 | 0.493
5 | B5 | 0.396
6 | B6 | 1.34
7 | B7 | 0.265
8 | B8 | 0.63
9 | B9 | 0.506
10 | B10 | 0.51
11 | B11 | 0.292
12 | B12 | 0.906
13 | B13 | 0.546
14 | B14 | 0.248
15 | B15 | 1.18
16 | B16 | 2.15
17 | B17 | 1.51
18 | B18 | 0.327
19 | B19 | 0.244
20 | B20 | 7.82
21 | B21 | 0.456
22 | B22 | 1.15
